{
  "source": "PubChem BioAssay (NCATS)",
  "note": "Values joined by “and” are separate entries in the source; they are usually repeats but may differ in a detail not shown here. Equal entries are not always repeated. The entries are a selection whose mix differs from that of the whole data set. Inconclusive results are not listed. Active and inactive are the calls of the source. Calls follow the shape of the dose curve; as a rule, active = well fitted inhibition curve with a large enough effect; inconclusive = small, poorly fitted or top-dose-only effect; inactive = no such curve, though single readings can be large or run the other way. Potency is read from the fitted curve at half-maximal effect.",
  "data": [
    {"biological_target": "Cytochrome P450 3A7 (Homo sapiens) (UniProt P24462)", "sequence (P24462 whole entry, looked up)": "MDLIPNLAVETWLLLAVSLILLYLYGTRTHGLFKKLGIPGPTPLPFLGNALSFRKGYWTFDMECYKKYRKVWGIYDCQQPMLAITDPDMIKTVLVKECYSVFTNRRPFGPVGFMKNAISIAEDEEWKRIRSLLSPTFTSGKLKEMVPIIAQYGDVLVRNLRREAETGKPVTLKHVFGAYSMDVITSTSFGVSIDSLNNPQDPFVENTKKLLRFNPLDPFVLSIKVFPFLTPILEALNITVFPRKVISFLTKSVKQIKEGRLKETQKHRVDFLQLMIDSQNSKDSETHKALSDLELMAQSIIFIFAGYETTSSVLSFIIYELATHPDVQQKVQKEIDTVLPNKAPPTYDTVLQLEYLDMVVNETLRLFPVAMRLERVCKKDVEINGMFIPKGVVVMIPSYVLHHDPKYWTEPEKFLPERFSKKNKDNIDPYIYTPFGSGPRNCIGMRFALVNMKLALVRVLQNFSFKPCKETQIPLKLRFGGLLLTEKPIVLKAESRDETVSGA", "test": "Cytochrome P450 family 3 subfamily A member 7 (CYP3A7) small molecule antagonists: luciferase biochemical qHTS assay (AID 1963596); also: nearly all actives have a fitted effect of over 40% in size", "conditions": "P450-Glo CYP3A7 enzyme luminescence, 1 h; series mostly up to 57.4 µM", "source_text": "National Center for Advancing Translational Sciences [NCATS] Assay Overview: Cytochrome P450 (CYP) enzymes are membrane-bound hemeproteins that play a key role in metabolism of drugs and xenobiotics. The CYP3A subfamily is the most abundant, representing 30% of the total adult hepatic CYP content, whereas CYP3A7 is found predominantly in human fetal liver and accounts up to 50% of the total fetal hepatic CYP content. Testing the effect of chemicals on CYP isozymes is useful to minimize the adverse drug reactions and toxicities in the drug development process. Chemicals were tested for their effect on CYP enzyme activities by using P450-Glo (TM) screening systems (Promega Corporation, Madison, WI). These systems provide a luminescent method containing proluciferin substrates and are converted to luciferin products by CYP isozymes. The luciferin products formed are detected with a luciferin detection reagent, and the amount of light produced is proportional to CYP activity. P450-Glo (TM) CYP3A7 screening system (Catalog. No. V8812) was used to detect the compounds that interfere with CYP3A7 activity. The positive control compound used for CYP3A7 assay is ketoconazole (Sigma-Aldrich, St. Louis, MO).\nAssay Protocol Summary: Two ul of enzyme-substrate mix was dispensed into medium binding white/solid 1536-well plates (Greiner Bio-One North America Inc., Monroe, NC) using a Flying Reagent Dispenser (FRD, Aurora Discovery, San Diego, CA). Compounds dissolved in DMSO, and positive control (ketoconazole) were transferred to the assay plates at 23 nl using a Pintool station (Wako, San Diego, CA). The assay plates were incubated at room temperature for 10 min. Then 2 ul of NADPH regeneration solution was added to each well of the assay plates using an FRD and incubated at room temperature for 1 h. The reaction was stopped by adding 4 ul of detection reagent using an FRD and after 20 min incubation at room temperature the luminescence signal was measured using a ViewLux plate reader (Perkin Elmer, Shelton, CT). Data were expressed as relative luminescence units.", "values": [
      {"smiles": "CC(C)n1c(=O)c(C(=O)NC2CC3CCC(C2)N3C[C@@H](O)CN(C)S(C)(=O)=O)cc2ccccc21", "note": "(stereo partly drawn)", "Potency": "inactive"},
      {"smiles": "O=C1OCCN1/N=C/c1ccc([N+](=O)[O-])o1", "Potency": "active: 15.5 µM and active: 10.7 µM"},
      {"smiles": "C[C@@H]1C[C@H]2[C@@H]3C[C@H](F)C4=CC(=O)C=C[C@]4(C)[C@@]3(F)[C@@H](O)C[C@]2(C)[C@@]1(O)C(=O)CO", "Potency": "active: 1.74 µM and active: 1.07 µM"},
      {"smiles": "Cc1cc(/C=C/c2ccc3cc(N(C)C)ccc3[n+]2C)c(C)n1-c1ccccc1", "Potency": "active: 11.2 µM"},
      {"smiles": "CCc1nc2ccc(C(=O)N3CCN(c4cc(C)ccc4C)CC3)cc2nc1CC", "Potency": "active: 10.7 µM"},
      {"smiles": "NC(=O)c1cnc(-c2ccc(C3(N)CCC3)cc2)c(-c2ccccc2)c1", "Potency": "active: 0.282 µM"},
      {"smiles": "COC(=O)C1=C(C)NC(C)=C(C(=O)OC)C1c1ccccc1[N+](=O)[O-]", "Potency": "active: 2.75 µM"},
      {"smiles": "CC(C)(CO)[C@@H](O)C(=O)NCCC(=O)NCCSSCCNC(=O)CCNC(=O)[C@H](O)C(C)(C)CO", "Potency": "inactive"},
      {"smiles": "CCC(C)(CN(C)C)OC(=O)c1ccccc1", "note": "(stereo not drawn)", "Potency": "inactive"},
      {"smiles": "N#Cc1ccc(-c2ccc(S(=O)(=O)Nc3cccc(N)n3)cc2)cc1", "Potency": "active: 10.7 µM"},
      {"smiles": "Cc1ccc(CCCO)c(NCc2ccc3nc(NCCCN4CCOCC4)n(Cc4nc(C)ccc4O)c3c2)c1", "Potency": "active: 10.7 µM"},
      {"smiles": "CCCCC(=O)OCC(=O)[C@H]1[C@H](C)C[C@H]2[C@@H]3C[C@H](F)C4=CC(=O)C=C[C@]4(C)[C@@]3(F)[C@@H](O)C[C@@]21C", "Potency": "active: 0.49 µM"},
      {"smiles": "Nc1ccc(C(=O)Nc2cccc(-c3nc(N4CCOCC4)c4oc5ncccc5c4n3)c2)cn1", "Potency": "active: 5.01 µM"},
      {"smiles": "Cc1c(NC(=O)N2CCOCC2)ccc2c1c1ccccc1n2C(C)C", "Potency": "active: 2.13 µM"},
      {"smiles": "NC(=O)NNc1ccccc1", "Potency": "active: 13.8 µM"},
      {"smiles": "CCn1cc(C(=O)O)c(=O)c2cc(F)c(N3CCN(C)CC3)cc21", "Potency": "inactive"},
      {"smiles": "O=C(c1ccc(F)cc1)N1CCCC(c2nc(-c3ccc(F)cc3)no2)C1", "note": "(stereo not drawn)", "Potency": "inactive"},
      {"smiles": "C[C@@H](O)[C@H]1C(=O)N2C(C(=O)OCOC(=O)C(C)(C)C)=C(SC3CN(C4=NCCS4)C3)[C@H](C)[C@H]12", "Potency": "active: 14.1 µM"}
    ]}
  ]
}
